Assay results: the supplement of paper PMC3334620
The full ranking holds about 33,000 sequences; the median of “E-score (-0.5 to 0.5)” is about -0.013, and the highest 2% start at about 0.3. The list shows a part of the results.

The sequences below were run against T1, Msn1 (UniProt P22148) (assay: PBM E-score (8-mer binding enrichment) (E-score (-0.5 to 0.5)); higher = stronger / more preferred TF binding; most listed sequences are background and not binding sites). Conditions: protein concentration: 200 nM; construct: GST-full length.
T1 sequence: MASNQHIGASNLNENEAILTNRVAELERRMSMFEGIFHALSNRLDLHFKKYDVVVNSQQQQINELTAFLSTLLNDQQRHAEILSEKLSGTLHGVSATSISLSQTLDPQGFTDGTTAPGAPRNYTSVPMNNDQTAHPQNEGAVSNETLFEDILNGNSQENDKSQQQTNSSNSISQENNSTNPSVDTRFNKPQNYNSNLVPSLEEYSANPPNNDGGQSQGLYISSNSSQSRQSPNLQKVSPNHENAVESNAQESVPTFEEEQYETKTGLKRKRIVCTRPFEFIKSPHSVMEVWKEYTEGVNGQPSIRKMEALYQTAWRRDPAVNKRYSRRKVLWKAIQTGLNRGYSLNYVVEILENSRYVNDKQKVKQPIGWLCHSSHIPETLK
Method in brief: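 E-scores (a modified Wilcoxon-Mann-Whitney statistic) were assigned by the Universal PBM Analysis Suite to every ungapped eight-base word pooled with its reverse complement. The input came from universal all-10-mer Agilent arrays made double-stranded by primer extension and probed with GST-tagged yeast transcription factors at about 100-200 nM. Fluorescent anti-GST detected bound protein, and masliner normalised the scans.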

Sequence | PBM E-score
AGTTTTAC | 0.0868
CGCGTTGC | 0.161
CTTGACCA | 0.00926
CGGGTGCC | -0.181
ACTGTAAC | -0.113
CAGTTGAA | 0.114
ACGCATCA | 0.133
AAGTAGCG | -0.176
CGGTCAAG | 0.0408
GAACCAGA | -0.179
GGCCCCGA | -0.107
CAAGTTCC | 0.00914
AGATAGAG | 0.00936
CACCCAGG | -0.205
TCCAAGAA | -0.0356
AAGCTAAG | -0.177
CCACGGAG | 0.0292
TTCTCAAA | 0.168
CCAGTTTC | -0.128
AAGCTTAA | 5e-05
GCTCTGCA | -0.327
CACCACGG | -0.138
AACTACCA | -0.0694
GGTCGTCA | -0.0599
CTAAACCC | 0.00369

Sequence | PBM E-score
CAAACTTA | 0.193
ATTTTGGG | 0.188
CACATACA | 0.0971
CCTAAACC | -0.0782
CTAGATCC | -0.119
ACGGTGAA | 0.0567
GTCGTCAC | 0.00131
GCCTGTGA | -0.242
GGTCTCAA | 0.0652
ATTATTAG | 0.175
CCCAACAA | -0.0384
AGCATGCT | -0.0522
CGACACAG | 0.154
GAATTAAA | 0.0652
ACCGCCGG | -0.184
GTTGTTCA | -0.0397
TAGTACTA | 0.135
CTACGTTA | 0.0203
AGCACTTA | -0.039
ATTAGGTC | 0.223
AAGCTACA | -0.0106
ATGCTTAA | -0.0652
CATCACGC | 0.0179
CATTCCTC | -0.164
GACCCTTA | -0.246

Sequence | PBM E-score
AAGATTAA | 0.151
GAAACCTA | -0.0672
TCATGTAA | 0.119
AGCGGCCC | -0.244
AAATGCGT | 0.033
ATTTGTAC | 0.46
CATAGACA | 0.35
GAGTCTGA | -0.147
GCGTTCAC | -0.00361
ATGTTGCC | -0.104
CAAGCCTG | -0.0301
ACTACAGT | -0.105
ACTTCTCC | -0.267
ATAGAGGG | -0.14
ATACCTAT | -0.0115
CAATCCGC | 0.0784
CGAGAGAC | -0.116
CGTCTCAC | -0.0978
AATGCAAG | -0.0588
CGTAGGTC | -0.171
AACATCAA | 0.0716
GCGAGTGA | -0.0159
ACTAAGAT | 0.176
TGGTAAAA | 0.172
CTATTTAC | 0.105

Sequence | PBM E-score
ATTGGGCG | -0.116
AATCACGC | 0.00204
GAGCTGAA | -0.0201
ATATATTG | -0.172
CTGGTATA | -0.044
TATTGCGA | 0.107
ACCGAGTA | -0.0136
GGCTTATA | -0.23
TCCCGCCA | -0.217
ACCATAAA | 0.173
CCCAATAC | -0.057
GGAGTGTA | -0.268
ATTTACCC | 0.164
TAGACGAA | 0.0138
AGAGTGCA | -0.218
GAGTGTCA | 0.108
AAGAACCC | -0.134
AGGAACGG | -0.124
CTTAAAGA | 0.0952
CATAACAG | 0.0538
GCCCACCA | -0.303
AACTTGTA | 0.107
CCCAAGCG | -0.0934
CTTTGGTA | -0.1
ATTAACAC | 0.0955

Sequence | PBM E-score
GAGATCTA | -0.183
CATATGAA | 0.141
GTACTCGA | -0.113
TGTTACAA | 0.22
AGCTAATC | 0.0178
TAGCCAGA | -0.108
GTCCACGA | 0.249
AGAGTCTG | -0.128
ACGCTCGC | 0.0326
GGAGCTAC | -0.137
AATTGTAA | -0.0934
ACAGGGAA | 0.0107
AGCCCAGC | -0.24
CTGTGTTC | 0.11
AACGCATA | 0.0763
TCCGAAGA | 0.131
CAATACCC | 0.0522
ACCGACGG | -0.0248
CGATGGCA | -0.164
CGCAATAG | -0.0645
GTACAGTA | 0.0995
AACAGTGA | 0.0353
CAGAAAGG | -0.0618
TTACGCAA | 0.0247
AGTCACAG | 0.13

Sequence | PBM E-score
CCCCCGCA | -0.337
GCGTCCAA | 0.067
GTGATAAA | -0.0414
CTTCAATA | 0.202
TGGCGAAA | -0.095
TAGCACAA | -0.0496
CGGAGAAC | 0.0215
CAGGGAAG | -0.169
TACGCTCA | 0.0632
GAATTTGA | 0.1
TAAGACTA | 0.177
GAGAATCC | -0.0107
AAAGATCG | 0.0122
CGTCTCAG | 0.0225
ACCTCTCC | -0.216
CTTAATAC | -0.0761
GAAGGGAA | -0.174
AACTCGAG | 0.0829
CATAGCTC | -0.112
CGAGCGTA | 0.0434
ACAGTGGA | 0.0618
CAGGGTCC | -0.201
CAGATTAC | 0.116
ACGATGTA | 0.00548
CGATGATA | -0.039

Sequence | PBM E-score
AGGCAGGC | -0.145
AGGGTATG | 0.0049
ATGGACAA | 0.485
AACTGTGG | 0.139
CGGAAAAA | 0.249
ATTATCGC | 0.251
CCAATTCC | 0.0443
ATACTCAT | -0.0656
CGCGTCAG | -0.235
GAGAGGAA | -0.0126
AGAAAGGA | -0.0862
ATTTAACA | 0.0327
ACCAGAAC | 0.0664
AATCAAAT | 0.0333
TGAGATCA | 0.0168
AGCCAACC | -0.0851
AAGACGAC | -0.0563
CTTCTTCC | -0.236
ACCGGGGA | -0.187
ACGTTTGG | 0.1
ACACTGCA | -0.146
CTAAAGCA | 0.106
